Laboratory results from PubChem BioAssay (NCATS).
Inconclusive means that the source gave no clear call. Such entries were picked first, then a sample of the others. For some assays here: Potencies of inconclusive entries are doubtful fits and often do not repeat. Activity calls are given as the source filed them. Unless noted, the call rests on the fitted dose curve; in most records, active means well fitted curve in either direction with a large enough effect (not every such curve was filed as active); inconclusive means small, poorly fitted or top-dose-only effect, or another doubt; inactive means flat fitted curve, though single readings scatter.

Key:
[1] = NFAT Signaling Pathway (AID 444); conditions: Jurkat NFAT-bla M1, carbachol, beta-lactamase ratio, 5 h; at 7.69 µM (top of the series) unless noted;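 further: carbachol stimulus at about its EC50 of 1 µM final; on the % scale 0 is the no-effect control and ±100 the full control effect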
Method in brief: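 Jurkat cells with NFAT-driven β-lactamase reporter and co-expressed M1 receptor, stimulated with carbachol (final 1 uM, ~EC50), compound titration, 5 h at 37 °C. CCF4 loaded 1 h at RT; 460/530 nm ratio gave %activity and AC50.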

[2] = target: Cytochrome P450 2D6 (Homo sapiens) (UniProt P10635); experiment: qHTS Assay for Inhibitors and Substrates of Cytochrome P450 2D6 (AID 891; active means well fitted curve in the direction sought with a large enough effect; inconclusive means small, poorly fitted or top-dose-only effect, or another doubt; inactive means no such curve, though single readings can be large; an effect the other way counts as inactive or inconclusive;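 further: luciferin methyl ether substrate demethylated by CYP2D6 with NADPH regeneration; potency means the concentration at half of the fitted maximal effect; nearly all actives have a fitted effect of over 60% in size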)
UniProt P10635, sequence (P10635 whole entry, looked up): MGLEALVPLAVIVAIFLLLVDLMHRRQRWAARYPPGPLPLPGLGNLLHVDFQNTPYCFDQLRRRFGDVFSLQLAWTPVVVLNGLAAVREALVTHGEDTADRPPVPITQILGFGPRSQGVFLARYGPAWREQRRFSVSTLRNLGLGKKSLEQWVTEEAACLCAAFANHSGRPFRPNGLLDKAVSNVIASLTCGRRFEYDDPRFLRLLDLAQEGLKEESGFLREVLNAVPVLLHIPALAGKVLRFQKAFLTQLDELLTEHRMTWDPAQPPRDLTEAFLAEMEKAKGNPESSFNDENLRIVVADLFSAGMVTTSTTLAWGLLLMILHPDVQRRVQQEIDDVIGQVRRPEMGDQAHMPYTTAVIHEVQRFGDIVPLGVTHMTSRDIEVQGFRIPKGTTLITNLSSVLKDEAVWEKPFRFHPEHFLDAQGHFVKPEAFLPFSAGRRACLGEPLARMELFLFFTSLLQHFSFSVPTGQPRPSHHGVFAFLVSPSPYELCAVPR
Method in brief: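 Luminescent read-out of luciferin formed by 5 nM human CYP2D6 demethylating 30 uM Luciferin-ME EGE (Km level) over 60 min at room temperature after NADPH regeneration addition. Data normalized to full inhibition by 1.43 uM quinidine.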

[3] = qHTS Assay for Identification of Small Molecule Antagonists for NFkB Signaling Pathway (AID 895; active means well fitted inhibition curve with a large enough effect in the signal ratio, with a control signal flat, not every such curve was filed as active; inconclusive means small, poorly fitted or top-dose-only effect, or effect the other way, or a change in a side signal; the % refers to the signal ratio; further: on the % scale 0 is the no-effect control and ±100 the full control effect); conditions: NFkB beta-lactamase reporter cells, FRET ratio 460/530; activity change, negative = inhibition: at 38.3 µM (top of the series) unless noted
Method in brief: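 ME-180 NFkB-bla cells (beta-lactamase under NFkB response element), plated overnight, treated with compound then 10 pM TNF alpha (about EC50) for 5 hrs at 37 C. LiveBLAzer FRET read at 460/530 nm emission, 405 nm excitation.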

[4] = qHTS Assay for Identification of Small Molecule Antagonists for Thrombopoietin (TPO) Signaling Pathway (AID 918; active means well fitted curve in the direction sought with a large enough effect; inconclusive means small, poorly fitted or top-dose-only effect, or another doubt; inactive means no such curve, though single readings can be large; an effect the other way counts as inactive or inconclusive; further: nearly all actives have a fitted effect of over 60% in size); conditions: TPO-dependent cell signaling reporter, antagonist mode; activity change, negative = inhibition: at 38.5 µM (top of the series)
Method in brief: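 Inhibitors of TPO signaling are sought by stimulating IL-3-starved murine Ba/F3 cells (human TPO receptor, Glycoprotein IIb-driven luciferase) with TPO at its EC50 of 26 pM alongside compound. After 24 hrs at 37 C, reporter luminescence is measured.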

[5] = target: Muscarinic acetylcholine receptor M1 (Rattus norvegicus) (UniProt P08482); experiment: qHTS Assay for Antagonists of Acetylcholine Muscarinic M1 Receptor: Kinetic Measurement of Intracellular Calcium Response (AID 943; active means well fitted curve in the direction sought with a large enough effect; inconclusive means small, poorly fitted or top-dose-only effect, or another doubt; inactive means no such curve, though single readings can be large; an effect the other way counts as inactive or inconclusive; further: potency means the concentration at half of the fitted maximal effect; nearly all actives have a fitted effect of over 75% in size)
UniProt P08482, sequence (P08482 whole entry, looked up): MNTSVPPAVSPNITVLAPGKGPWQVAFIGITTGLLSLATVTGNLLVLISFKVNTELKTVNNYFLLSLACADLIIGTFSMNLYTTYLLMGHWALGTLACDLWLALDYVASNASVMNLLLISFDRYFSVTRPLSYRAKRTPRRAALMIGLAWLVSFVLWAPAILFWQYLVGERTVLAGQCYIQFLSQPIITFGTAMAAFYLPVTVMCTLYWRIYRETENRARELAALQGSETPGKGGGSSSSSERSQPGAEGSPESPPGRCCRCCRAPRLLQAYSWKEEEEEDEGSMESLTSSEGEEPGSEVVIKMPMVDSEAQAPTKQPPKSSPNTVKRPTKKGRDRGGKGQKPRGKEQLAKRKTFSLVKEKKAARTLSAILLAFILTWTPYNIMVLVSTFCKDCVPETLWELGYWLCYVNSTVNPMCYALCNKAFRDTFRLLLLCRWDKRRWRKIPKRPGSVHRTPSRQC
Method in brief: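 Antagonism is measured as inhibition of the carbachol-evoked calcium rise in CHO cells transfected with rat M1. Cells are dye-loaded, exposed to compound for 10 min, then stimulated with 100 nM carbachol (EC80).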

[6] = target: Muscarinic acetylcholine receptor M1 (Rattus norvegicus) (UniProt P08482); experiment: qHTS Assay for Antagonists of Acetylcholine Muscarinic M1 Receptor: Measurement of IP-One Response (AID 944; active means well fitted curve in the direction sought with a large enough effect; inconclusive means small, poorly fitted or top-dose-only effect, or another doubt; inactive means no such curve, though single readings can be large; an effect the other way counts as inactive or inconclusive; further: potency means the concentration at half of the fitted maximal effect; nearly all actives have a fitted effect of over 75% in size)
[7] = qHTS Assay for Identification of Small Molecule Agonists for Hypoxia Response Element Signaling Pathway (AID 914; active means well fitted activation curve with a large enough effect in the signal ratio, with a control signal flat, not every such curve was filed as active; inconclusive means small, poorly fitted or top-dose-only effect, or effect the other way, or a change in a side signal; the % refers to the signal ratio; further: potency means the concentration at half of the fitted maximal effect; on activation: top concentration of the series differs between compounds; % of control where 0% means no effect); conditions: ME-180 HRE-bla reporter, beta-lactamase ratio, CoCl2, 17 h; activation: hits give high values
Method in brief: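 Compounds in a titration series were added to ME-180 reporter cells alongside an EC50 level of CoCl2. After 17 hours, beta-lactamase activity was read as the 460nm/530nm emission ratio of CCF4, giving AC50 values.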

[8] = Stat Signaling Pathway (AID 446); conditions: ME-180 (cervical carcinoma) SIE beta-lactamase reporter, IL-6 stimulated, 5 h; at 38 µM (top of the series) unless noted;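 further: ME-180 cervical cancer cells given 40 pM IL-6 alongside compound; SIE-controlled beta-lactamase reporter measured as 460/530 nm FRET emission ratio; top concentration of the series differs between compounds; on the % scale 0 is the no-effect control and ±100 the full control effect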
Method in brief: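 Compound effects on IL-6-induced STAT reporter activity were measured in ME-180 cells. After overnight culture, cells were co-treated with 40 pM IL-6 for 5 hrs before beta-lactamase substrate loading at room temperature.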

[9] = target: Cytochrome P450 3A4 (Homo sapiens) (UniProt P08684); experiment: qHTS Assay for Inhibitors and Substrates of Cytochrome P450 3A4 (AID 884; active means well fitted curve in the direction sought with a large enough effect; inconclusive means small, poorly fitted or top-dose-only effect, or another doubt; inactive means no such curve, though single readings can be large; an effect the other way counts as inactive or inconclusive; further: potency means the concentration at half of the fitted maximal effect; nearly all actives have a fitted effect of over 50% in size)
UniProt P08684, sequence (P08684 whole entry, looked up): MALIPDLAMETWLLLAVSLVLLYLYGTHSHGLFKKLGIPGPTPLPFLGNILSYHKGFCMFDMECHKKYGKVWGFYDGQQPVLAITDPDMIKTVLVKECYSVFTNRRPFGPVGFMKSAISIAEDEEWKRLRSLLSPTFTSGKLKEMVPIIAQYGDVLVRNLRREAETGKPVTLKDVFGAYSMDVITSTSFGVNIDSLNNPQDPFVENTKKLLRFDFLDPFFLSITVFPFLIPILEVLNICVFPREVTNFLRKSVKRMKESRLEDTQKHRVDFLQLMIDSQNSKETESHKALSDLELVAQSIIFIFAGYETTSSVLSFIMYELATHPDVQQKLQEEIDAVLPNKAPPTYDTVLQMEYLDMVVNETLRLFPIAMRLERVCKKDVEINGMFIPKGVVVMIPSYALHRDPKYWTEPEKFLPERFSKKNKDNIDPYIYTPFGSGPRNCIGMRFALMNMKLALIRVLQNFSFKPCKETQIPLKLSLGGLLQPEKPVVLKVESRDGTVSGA
Method in brief: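 Luminescent readout of luciferin produced by CYP3A4 (20 nM) dealkylation of Luciferin-PPXE, 25 uM (its KM). NADPH-driven reaction ran 60 min at RT after 10 min compound preincubation; data scaled to 57 uM ketoconazole as 100% inhibition.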

[10] = target: Cytochrome P450 2C9 (Homo sapiens) (UniProt P11712); experiment: qHTS Assay for Inhibitors and Substrates of Cytochrome P450 2C9 (AID 883; active means well fitted curve in the direction sought with a large enough effect; inconclusive means small, poorly fitted or top-dose-only effect, or another doubt; inactive means no such curve, though single readings can be large; an effect the other way counts as inactive or inconclusive; further: potency means the concentration at half of the fitted maximal effect; nearly all actives have a fitted effect of over 60% in size)
UniProt P11712, sequence (P11712 whole entry, looked up): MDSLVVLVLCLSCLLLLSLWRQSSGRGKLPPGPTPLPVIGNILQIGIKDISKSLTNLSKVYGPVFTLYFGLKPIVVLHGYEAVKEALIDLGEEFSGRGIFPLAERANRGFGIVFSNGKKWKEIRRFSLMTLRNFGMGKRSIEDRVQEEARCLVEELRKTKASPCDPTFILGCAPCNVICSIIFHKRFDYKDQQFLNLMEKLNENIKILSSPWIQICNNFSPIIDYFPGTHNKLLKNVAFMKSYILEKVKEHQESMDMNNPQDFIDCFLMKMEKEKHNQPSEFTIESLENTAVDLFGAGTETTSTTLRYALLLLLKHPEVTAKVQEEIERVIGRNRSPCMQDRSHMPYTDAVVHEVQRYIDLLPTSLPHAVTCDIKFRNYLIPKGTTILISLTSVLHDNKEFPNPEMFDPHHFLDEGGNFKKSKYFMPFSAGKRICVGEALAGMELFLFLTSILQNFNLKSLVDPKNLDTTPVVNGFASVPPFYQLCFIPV
Method in brief: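 Signal: luciferase luminescence reporting luciferin produced by CYP2C9. Conditions: 10nM enzyme, Luciferin-H 100uM at KM, 25mM KPO4, 37C, 60 min NADPH-driven reaction. Reference: 57uM sulphaphenazole as 100% inhibition.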

[11] = target: Cytochrome P450 3A4 (Homo sapiens) (UniProt P08684); experiment: qHTS Assay for Activators of Cytochrome P450 3A4 (AID 885; active means well fitted curve in the direction sought with a large enough effect; inconclusive means small, poorly fitted or top-dose-only effect, or another doubt; inactive means no such curve, though single readings can be large; an effect the other way counts as inactive or inconclusive; further: potency means the concentration at half of the fitted maximal effect; nearly all actives have a fitted effect of over 65% in size); conditions: recombinant CYP3A4, Luciferin-PPXE luminescence, 60 min; activity change, positive = activation: at 57.1 µM (top of the series)
Method in brief: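 CYP3A4 activity: Luciferin-PPXE O-dealkylation, 25uM substrate, 200mM KPO4, RT throughout. Read-out is luciferase luminescence; higher values reflect activation.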

[12] = target: Guanine nucleotide-binding protein G(i) subunit alpha-1 (Homo sapiens) (UniProt P63096); experiment: qHTS Assay for Inhibitors of RGS12 GoLoco Motif Activity (Green Fluorophore) (AID 879; active means well fitted curve in the direction sought with a large enough effect; inconclusive means small, poorly fitted or top-dose-only effect, or another doubt; inactive means no such curve, though single readings can be large; an effect the other way counts as inactive or inconclusive; further: potency means the concentration at half of the fitted maximal effect)
UniProt P63096, sequence (P63096 whole entry, looked up): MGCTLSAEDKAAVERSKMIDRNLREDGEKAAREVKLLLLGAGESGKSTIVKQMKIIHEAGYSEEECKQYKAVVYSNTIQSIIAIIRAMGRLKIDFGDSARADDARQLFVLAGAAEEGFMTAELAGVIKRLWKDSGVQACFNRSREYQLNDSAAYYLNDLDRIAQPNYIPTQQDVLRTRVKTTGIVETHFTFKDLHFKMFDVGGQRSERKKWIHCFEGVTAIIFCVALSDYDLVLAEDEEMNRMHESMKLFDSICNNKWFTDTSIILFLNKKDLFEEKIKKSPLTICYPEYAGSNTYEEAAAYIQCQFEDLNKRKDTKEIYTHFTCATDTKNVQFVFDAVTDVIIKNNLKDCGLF
Method in brief: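 A drop in FITC polarization marked displacement of the FITC-tagged RGS12 GoLoco peptide (10 nM) from Gαi1 (50 nM). Compounds were incubated 10 min at room temperature in Tris pH 7.5 buffer containing 150 mM NaCl, 0.1 mM GDP and 0.05% NP40; unlabeled peptide titration served as control.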

[13] = target: DNA polymerase eta (Homo sapiens) (UniProt Q9Y253); experiment: qHTS for Inhibitors of Polymerase Eta: Confirmatory Assay for Cherry-picked Compounds (AID 720502; active means well fitted curve in the direction sought with a large enough effect; inconclusive means small, poorly fitted or top-dose-only effect, or another doubt; inactive means no such curve, though single readings can be large; an effect the other way counts as inactive or inconclusive; further: potency means the concentration at half of the fitted maximal effect); conditions: Pol eta primer extension, TAMRA/BHQ fluorescence, 10 min
UniProt Q9Y253, sequence (Q9Y253 whole entry, looked up): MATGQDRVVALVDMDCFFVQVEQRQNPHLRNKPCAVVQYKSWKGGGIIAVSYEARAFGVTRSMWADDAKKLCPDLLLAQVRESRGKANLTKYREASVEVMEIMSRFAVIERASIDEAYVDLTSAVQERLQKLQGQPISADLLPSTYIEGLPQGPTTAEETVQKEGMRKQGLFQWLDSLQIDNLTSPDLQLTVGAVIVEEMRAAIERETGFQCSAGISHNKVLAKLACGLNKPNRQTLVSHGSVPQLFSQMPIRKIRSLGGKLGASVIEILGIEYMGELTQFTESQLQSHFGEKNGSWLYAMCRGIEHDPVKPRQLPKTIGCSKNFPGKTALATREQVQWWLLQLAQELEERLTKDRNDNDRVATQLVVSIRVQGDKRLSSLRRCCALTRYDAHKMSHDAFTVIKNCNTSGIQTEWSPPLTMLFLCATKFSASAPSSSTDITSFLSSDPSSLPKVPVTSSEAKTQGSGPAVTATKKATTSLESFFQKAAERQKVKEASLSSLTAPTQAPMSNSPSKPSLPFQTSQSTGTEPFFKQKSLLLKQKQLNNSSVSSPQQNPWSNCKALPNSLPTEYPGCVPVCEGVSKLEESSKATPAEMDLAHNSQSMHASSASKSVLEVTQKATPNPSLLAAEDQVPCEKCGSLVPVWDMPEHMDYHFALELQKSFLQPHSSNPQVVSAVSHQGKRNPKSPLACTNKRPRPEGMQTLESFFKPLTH
Method in brief: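 Pol eta 10 nM; substrate 50 nM final (unlabeled primer, TAMRA reporter, BHQ-2 template); preincub. 15 min RT; reads t=0 and t=10 min at ex525/em598.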
Tags describe the fitted curve by direction and shape or compound fluorescence and quenching.

CCCC[N+]1(C)[C@@H]2CC(OC(=O)[C@@H](CO)c3ccccc3)C[C@H]1[C@H]1O[C@H]12 (stereo not given in full)
activity change, negative = inhibition [1]: inconclusive: -58.8% [inhibitor] [at 38 µM]
Potency [2]: inconclusive: 7.94 µM [inhibitor, full curve]
activity change, negative = inhibition [3]: inconclusive: -4.97% [at 38.3 µM, stimulated with 10 pM TNF alpha]
activity change, negative = inhibition [4]: inconclusive: -16.3% [phenotype inactive]
Potency [5]: active: 0.141 µM
Potency [6]: active: 0.562 µM

COc1cc2[nH]c(=O)n(-c3cccc(Cl)c3)c(=O)c2cc1OC
activity change, negative = inhibition [1]: inactive: 13.7% [at 17.2 µM]
Potency [7]: inconclusive: 3.16 µM [inhibitor, single point]

Cc1noc(C)c1C(=O)N1CCC[C@@]2(CCN(CC(C)C)C2)C1
activity, negative = inhibition [8]: inconclusive: 12.1% [activator] [at 7.69 µM]

COCCOC(=O)C1=C(N)Oc2c(c(=O)oc3ccccc23)[C@@]12C(=O)Nc1ccccc12
activity change, negative = inhibition [1]: inactive: -5.71% [at 17.2 µM]
activation [7]: inactive: -0.572%

COc1ccc(OC)c([C@@H](O)[C@H](C)NC(C)(C)C)c1
activity change, negative = inhibition [1]: inconclusive: -39.3% [inhibitor] [at 17.2 µM]
activation [7]: inactive: 0.127%

O=P(O)(O)c1ccccc1 (tested in a mixture with another compound)
activity, negative = inhibition [8]: inactive: -0.661% [at 7.69 µM]

CC(C)CN1CC[C@@]2(CCCN(C(=O)c3ccncc3)C2)C1
activity, negative = inhibition [8]: inactive: -5.13% [at 7.69 µM]

O=C(O)CN1CCN(CC(=O)O)CC(=O)[O][Hg][O]C(=O)C1
activity change, negative = inhibition [1]: inconclusive: -104% [inhibitor]
Potency [9]: inconclusive: 6.31 µM [inhibitor, single point]

COc1cc(C(=O)OC2C[C@H]3CC[C@@H](C2)N3C)ccc1O (stereo not given in full)
activity change, negative = inhibition [1]: inconclusive: -57.4% [inhibitor] [at 17.2 µM]
Potency [2]: inconclusive: 7.94 µM [inhibitor, partial curve]

CNc1ccc2oc(C[C@@H]3O[C@@]4(CC[C@H]3C)O[C@@H]([C@@H](C)C(=O)c3ccc[nH]3)[C@@H](C)C[C@H]4C)nc2c1C(=O)O
activity change, negative = inhibition [1]: active: 90.4% [activator] [at 38 µM]
activation [7]: inconclusive: 24.8%

FC(F)(F)c1nc2ccc(SSc3ccc4nc(C(F)(F)F)[nH]c4c3)cc2[nH]1
activity change, negative = inhibition [1]: inconclusive: 30.6% [activator]
Potency [10]: inconclusive: 7.94 µM [inhibitor, single point]

CCCCCCn1c(O)c(C=NC2CCN(Cc3ccccc3)CC2)c(=O)[nH]c1=O
activity change, negative = inhibition [1]: inconclusive: -46.2% [inhibitor] [at 17.2 µM]
Potency [7]: inconclusive: 7.94 µM [inhibitor, partial curve]

Oc1c(Cl)c(Cl)c(Cl)c(Cl)c1Cl (tested in a mixture with another compound)
activity change, negative = inhibition [1]: inconclusive: -72.2% [inhibitor] [middle of 4 runs]
outcome [7]: inconclusive

N[C@@H](Cc1c[nH]c2cc([N+](=O)[O-])ccc12)C(=O)O
activity, negative = inhibition [8]: inactive: 10.4% [at 7.69 µM]

c1ccc2c(c1)Sc1ccccc1N2C[C@H]1CN2CCC1CC2
activity change, negative = inhibition [1]: active: -73.4%
activation [7]: inconclusive: 16.1%

C[C@@H]1O[C@H](OC2[C@@H](O)[C@H](O)C(O)[C@H](O)[C@H]2O)[C@@H](N)C[C@@H]1N=C(N)C(=O)O (stereo not given in full)
activity change, negative = inhibition [1]: inactive: 8.22%
activation [7]: inactive: 3.06%

O=C1C2CCN(CC2)[C@@H]1Cc1ccc2ccccc2c1O
activity change, negative = inhibition [1]: inconclusive: -68.8% [inhibitor] [at 17.2 µM]
Potency [7]: inconclusive: 10 µM [inhibitor, partial curve]

CO[C@@H](C)[C@](O)(C(=O)OCC1=CCN2CC[C@@H](O)[C@H]12)C(C)C
activity change, negative = inhibition [1]: inconclusive: -60.3% [inhibitor] [at 17.2 µM]
Potency [2]: inconclusive: 3.98 µM [inhibitor, full curve]

CC1CCC(C(C)C)C(OP(N)(=O)c2ccccc2)C1 (stereo not given)
activity change, negative = inhibition [1]: inactive: 16.1% [at 17.2 µM]
activation [7]: inactive: -7.02%

O=C(Oc1ccccc1)N1CCC2(CCN(Cc3ccccc3)CC2)CC1
activity change, negative = inhibition [1]: inconclusive: -67.6% [inhibitor]
Potency [11]: inconclusive: 10 µM [activator, single point]

CCCCc1nc(N2CCNCC2)c(C#N)c2c1CSC(C)(C)C2
activity change, negative = inhibition [1]: inconclusive: -79.1% [inhibitor] [at 17.2 µM]
Potency [7]: inconclusive: 0.501 µM [activator, full curve, poor fit]

CC[C@H](CO)NC(=O)[C@@H]1C=C2c3cccc4c3c(cn4C)C[C@@H]2N(C)C1
activity change, negative = inhibition [1]: inactive: -10.9% [at 38 µM]
Potency [12]: inconclusive: 31.6 µM [inhibitor, single point]
Potency [3]: inactive
Potency [7]: inconclusive: 12.6 µM [inhibitor, partial curve]
activity change, negative = inhibition [4]: inconclusive: 6.48% [phenotype inactive]

Cc1c(N=Cc2c(O)n(Cc3ccco3)c(=O)[nH]c2=O)c(=O)n(-c2ccccc2)n1C
activity change, negative = inhibition [1]: inconclusive: -64.8% [inhibitor] [at 17.2 µM]
Potency [13]: inconclusive: 84.9 µM [inhibitor, single point]

O=C(O)[C@@H](Br)[C@H](Br)C(=O)O
activity, negative = inhibition [8]: inactive: 3.93% [at 7.69 µM]
